The other results are listed elsewhere or left out. At the low end of the ranking the order means little.

The assay deals with GST-SBP-SLBP (stem-loop binding protein) (UniProt Q14493). Briefly: targeted RNA Bind-n-Seq.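 Note: DESeq read counts versus GST-SBP nonspecific binding control pulldown.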 The conditions noted are these: RBNS binding buffer: 25 mM Tris pH 7.5, 150 mM KCl, 3 mM MgCl2, 0.1% Tween, 0.5 mg/mL BSA, 1 mM DTT; 27 nM protein, 750 pM RNA pool; temperature not stated; high values mean tight binding.
On to “GGUCACGUCUCAAUCAACUCUUCGCCCAGGGAAAUCCCUGGUUAAUUCAACAGCUCGCAGUCAAG”, for which the binding signal (log2 fold change) was determined as 0.188.

Consider “GGUCACGUCUCAAUCAACUCUUUCUCCAGGGAAACCCCUGGUUUACUCAACAGCUCGCAGUCAAG”, for which the binding signal (log2 fold change) is -0.101.

Regarding “GGUCACGUCUCAAUCAACUCUUUCUCAGGAGUUUCCUCCUGCUUAUUCAACAGCUCGCAGUCAAG”, the binding signal (log2 fold change) worked out at 0.0275.

Take “GGUCACGUCUCAAUCAACUCUUCGUCCAGGGAAACCCCUGGUAAAUUCAACAGCUCGCAGUCAAG”: the binding signal (log2 fold change) is -0.139.

“GGUCACGUCUCAAUCAACUCAGUUCCCAGGGAAACCCCUGGCUUUUUCAACAGCUCGCAGUCAAG”: the binding signal (log2 fold change) was -0.124.

In the case of “GGUCACGUCUCAAUCAACUCAACUUCAGGAGUUUUCUCCUGCUAAUUCAACAGCUCGCAGUCAAG”, the binding signal (log2 fold change) was -0.0865.

As for “GGUCACGUCUCAAUCAACUCAUCCUCAGGAGUUUUCUCCUGCAAAGUCAACAGCUCGCAGUCAAG”, the binding signal (log2 fold change) is 0.202.

As for “GGUCACGUCUCAAUCAACUCUAUUUCCAGGGAAAGCCCUGGCAUUCUCAACAGCUCGCAGUCAAG”, the binding signal (log2 fold change) came out at 0.0552.

Take “GGUCACGUCUCAAUCAACUCAAUGUCAGGAGUUUUCUCCUGCUAAUUCAACAGCUCGCAGUCAAG”: the binding signal (log2 fold change) was -0.028.

On to “GGUCACGUCUCAAUCAACUCUAUUCCCAGGGAAAACCCUGGCAUUCUCAACAGCUCGCAGUCAAG”, for which the binding signal (log2 fold change) is 0.114.

Consider “GGUCACGUCUCAAUCAACUCAAUUCCAGGAGUUUUCUCCUGUUUAUUCAACAGCUCGCAGUCAAG”, for which the binding signal (log2 fold change) is 0.0185.

In the case of “GGUCACGUCUCAAUCAACUCAGUCCCAGGAGUUUACUCCUGCAUUCUCAACAGCUCGCAGUCAAG”, the binding signal (log2 fold change) is 0.0695.

As for “GGUCACGUCUCAAUCAACUCUACUCCCAGGGAAAGCCCUGGCAUAUUCAACAGCUCGCAGUCAAG”, the binding signal (log2 fold change) is -0.352.

With “GGUCACGUCUCAAUCAACUCUUCUUCAGGAGUUUUCUCCUGCAUUCUCAACAGCUCGCAGUCAAG”, the binding signal (log2 fold change) is 0.0997.

For “GGUCACGUCUCAAUCAACUCAUCCCCAGGAGUUUACUCCUGCAAAUUCAACAGCUCGCAGUCAAG”, the binding signal (log2 fold change) was -0.125.

Take “GGUCACGUCUCAAUCAACUCAAUCUCAGGAGUUUACUCCUGCAAUCUCAACAGCUCGCAGUCAAG”: the binding signal (log2 fold change) was -0.0352.

Turning to “GGUCACGUCUCAAUCAACUCGUCUUCAGGAGUUUCCUCCUGCAAAUUCAACAGCUCGCAGUCAAG”, the binding signal (log2 fold change) came to 0.0753.

As to “GGUCACGUCUCAAUCAACUCUUCGCCCAGGGAAAGCCCUGGUAUAUUCAACAGCUCGCAGUCAAG”, the binding signal (log2 fold change) is -0.00895.

Consider “GGUCACGUCUCAAUCAACUCAAUCUCAGGAGUUUACUCCUGCAUAUUCAACAGCUCGCAGUCAAG”, for which the binding signal (log2 fold change) was 0.0726.

Take “GGUCACGUCUCAAUCAACUCAAAAGAGGGGGGGAAAACCCCUUUACCCUCAAACUCAACAGCUCGCAGUCAAG”: the binding signal (log2 fold change) is -0.329.

Regarding “GGUCACGUCUCAAUCAACUCCCUAGAGGGGGGGAAAACCCCUUUACCCUCAAACUCAACAGCUCGCAGUCAAG”, the binding signal (log2 fold change) was -0.06.

Regarding “GGUCACGUCUCAAUCAACUCUACUCCCAGGGAAAACCCUGGUAUUUUCAACAGCUCGCAGUCAAG”, the binding signal (log2 fold change) turned out to be 0.141.

Take “GGUCACGUCUCAAUCAACUCAAAAGAGGGGGGGAAAACCCCUUUACCCUCAAAUUCAACAGCUCGCAGUCAAG”: the binding signal (log2 fold change) is -0.000329.

As to “GGUCACGUCUCAAUCAACUCUAUCUCCAGGGAAAUCCCUGGCAUAUUCAACAGCUCGCAGUCAAG”, the binding signal (log2 fold change) was 0.146.

With “GGUCACGUCUCAAUCAACUCUAUUUCCAGGGAAACCCCUGGCUAACUCAACAGCUCGCAGUCAAG”, the binding signal (log2 fold change) amounted to 0.134.

“GGUCACGUCUCAAUCAACUCAUUCUCCAGGGAAAGCCCUGGCUUAUUCAACAGCUCGCAGUCAAG”: the binding signal (log2 fold change) was -0.0587.

Take “GGUCACGUCUCAAUCAACUCAACGCCAGGAGUUUACUCCUGUUUUCUCAACAGCUCGCAGUCAAG”: the binding signal (log2 fold change) is -0.281.

Consider “GGUCACGUCUCAAUCAACUCUAUUCCAGGAGUUUUCUCCUGCUUAUUCAACAGCUCGCAGUCAAG”, for which the binding signal (log2 fold change) was -0.117.

For the sequence “GGUCACGUCUCAAUCAACUCUUUCCCCAGGGAAACCCCUGGCAUAUUCAACAGCUCGCAGUCAAG”, the binding signal (log2 fold change) stood at 0.107.

“GGUCACGUCUCAAUCAACUCCCUAGAGGGGGGGAAAACCCCUUUACCCUCACAAUCAACAGCUCGCAGUCAAG”: the binding signal (log2 fold change) turned out to be 0.389.

Take “GGUCACGUCUCAAUCAACUCAACUCCCAGGGAAAGCCCUGGCAAUUUCAACAGCUCGCAGUCAAG”: the binding signal (log2 fold change) stood at 0.122.

With “GGUCACGUCUCAAUCAACUCAUCCCCCAGGGAAACCCCUGGUAAAUUCAACAGCUCGCAGUCAAG”, the binding signal (log2 fold change) came to 0.108.

In the case of “GGUCACGUCUCAAUCAACUCUAUAGAGGGGGGGAAAACCCCUUUACCCUCACUAUCAACAGCUCGCAGUCAAG”, the binding signal (log2 fold change) stood at 0.116.

On to “GGUCACGUCUCAAUCAACUCCUUAGAGGGGGGGAAAACCCCUUUACCCUCAACAUCAACAGCUCGCAGUCAAG”, for which the binding signal (log2 fold change) amounted to 0.186.

For “GGUCACGUCUCAAUCAACUCAUCUUCCAGGGAAAACCCUGGCUAAUUCAACAGCUCGCAGUCAAG”, the binding signal (log2 fold change) amounted to 0.36.

In the case of “GGUCACGUCUCAAUCAACUCAAUUCCCAGGGAAACCCCUGGUAUUCUCAACAGCUCGCAGUCAAG”, the binding signal (log2 fold change) was -0.158.

Consider “GGUCACGUCUCAAUCAACUCUACUUCAGGAGUUUCCUCCUGUUAACUCAACAGCUCGCAGUCAAG”, for which the binding signal (log2 fold change) was found to be 0.141.

For the origin of these results see article PMC5892938.
